Measured values taken from PubChem BioAssay AID504845 (National Center for Advancing Translational Sciences (NCATS), 2011).
About 150 (0.038%) of roughly 390,000 compounds were called active. Inconclusive means that the source gave no clear call. Such entries were picked first, then a sample of the others. Calls come from the whole dose curve; as a rule, active = well fitted inhibition curve with a large enough effect; inconclusive = small, poorly fitted or top-dose-only effect; inactive = no such curve, though single readings can be large or run the other way. A potency beside an inconclusive call is a rough fit, not a confirmed value.

biological target: Regulator of G-protein signaling 4 (Homo sapiens) (UniProt P49798); assay: Inhibitors of Regulator of G Protein Signaling (RGS) 4: qHTS; conditions: Transcreener GDP fluorescence polarization, RGS4-accelerated GTP hydrolysis; series mostly up to 114 µM; activity change, negative = inhibition: at the top concentration; note: nearly all actives have a fitted effect of over 75% in size
UniProt P49798, sequence (P49798 whole entry, looked up): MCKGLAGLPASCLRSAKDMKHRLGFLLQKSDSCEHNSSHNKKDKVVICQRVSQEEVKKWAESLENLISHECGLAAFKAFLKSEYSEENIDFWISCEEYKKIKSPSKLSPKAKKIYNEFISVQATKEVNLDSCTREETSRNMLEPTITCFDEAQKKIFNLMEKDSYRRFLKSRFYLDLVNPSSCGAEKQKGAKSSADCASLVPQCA
Procedure, shortened: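 MLSMR compounds (23 nl, pin-transferred) preincubated 10 min at room temperature with a 500nM (2x) first reagent, then RGS4 at 900nM (2x) plus Transcreener GDP mix added; fluorescence polarization (620/688 nm) read before and after 90 min at 30 °C.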
% is set by controls: 0 for no effect and ±100 for the full control effect; potency is the fitted concentration of half-maximal effect; tags give direction and shape of the fitted curve.

SMILES | Potency | activity change, negative = inhibition
CCOC(=O)COc1ccc(/C=C/[N+](=O)[O-])c(OCC(=O)OCC)c1 | inconclusive: 44.7 µM [inhibitor, partial curve, poor fit] | –
COc1cc(N2C(=O)CSC23C(=O)N(Cc2cccc(F)c2)c2ccccc23)cc(OC)c1OC (centres undefined) | inconclusive: 89.1 µM [inhibitor, single point] | –
Cc1cc(Nc2cccc(Cl)c2)nc2ccc(NC(=O)Cc3ccc(Cl)cc3)cc12 | – | inactive: 5.57%
O=C(c1cc(-c2ccco2)nc2ccccc12)N1CCCC(C(F)(F)F)C1 (centres undefined) | inconclusive: 20 µM [inhibitor, full curve, poor fit] | –
Cc1nc2ccc(N=NC3=C(O)CC(C)(C)CC3=O)cc2s1 | – | inactive: 22.5%
CC1(C)CC(=O)C(C(C2=C(O)CC(C)(C)CC2=O)c2ccc([N+](=O)[O-])cc2)C(=O)C1 (centres undefined) | inconclusive: 17.8 µM [inhibitor, full curve, poor fit] | –
CC1CCCN(CCS(=O)(=O)c2ccccc2)C1 (centres undefined) | – | inactive: 2.99%
COc1ccccc1C(=O)Nc1cc2cc(Br)ccc2oc1=O | inconclusive: 100 µM [inhibitor, single point] | –
Cc1ccc(N/N=C(/Sc2nnnn2-c2ccccc2)C(=O)c2ccccc2)cc1 | inconclusive: 100 µM [inhibitor, partial curve, poor fit] | –
CC(C)NC(=O)c1cc(-c2ccco2)nn1-c1ccc(Cl)cc1 | inconclusive: 50.1 µM [inhibitor, partial curve, poor fit] | –
C[n+]1c2n(c3ccccc31)N=C(c1ccc(Br)cc1)CS2 | inconclusive: 44.7 µM [inhibitor, partial curve, poor fit] | –
c1ccc(Cc2nn3c(Cn4nnc5ccccc54)nnc3s2)cc1 | inconclusive: 28.2 µM [inhibitor, full curve, poor fit] | –
COC(=O)c1ccc(C)c(NC(=O)c2ccc(Cl)c([N+](=O)[O-])c2)c1 | inconclusive: 89.1 µM [inhibitor, single point] | –
CC1=NN(c2ccccc2)C(=O)/C1=C/c1ccc(Cl)cc1 | inconclusive: 39.8 µM [inhibitor, partial curve, poor fit] | –
O=C(OCC(=O)N(C1CCCCC1)C1CCCCC1)c1ccncc1 | inconclusive: 70.8 µM [inhibitor, partial curve, poor fit] | –
Cc1cc(NC(=O)CSc2ccc(-c3nc4cc(C)c(C)cc4[nH]3)cn2)no1 | – | inactive: 6.82%
Cc1ccc(NN=C2c3ccccc3-c3ccccc32)cc1 | inconclusive: 79.4 µM [inhibitor, partial curve, poor fit] | –
CC(Nc1nc(-c2ccc(F)cc2)cs1)c1nc2cc(Cl)c(Cl)cc2n1CCCO (centres undefined) | inconclusive: 17.8 µM [inhibitor, full curve, poor fit] | –
c1ccc(OCCn2c(-c3ccco3)nc3ccccc32)cc1 | inconclusive: 17.8 µM [inhibitor, full curve, poor fit] | –
[N-]=C=C1C(=S)NC(=O)[C@H]([n+]2ccccc2)[C@H]1c1ccc(Cl)cc1 | inconclusive: 50.1 µM [inhibitor, partial curve, poor fit] | –
O=c1[nH]c(=O)n(C(c2ccccc2)(c2ccccc2)c2ccccc2)cc1N(CCO)CCO | – | inactive: -19.1%
CCn1c(=O)cc(SCC(=O)Nc2cc(Cl)ccc2OC)c2ccccc21 | inconclusive: 70.8 µM [inhibitor, partial curve, poor fit] | –

SMILES | Potency | activity change, negative = inhibition
COc1ccc(-c2ccc(-c3noc(-c4cc(OC)cc(OC)c4)n3)c(OC)n2)cc1 | – | inactive: 4.16%
O=C(O)c1ccccc1NS(=O)(=O)c1ccc(N/N=C/c2ccc(O)c(O)c2)c([N+](=O)[O-])c1 | inconclusive: 79.4 µM [inhibitor, partial curve, poor fit] | –
CCc1cc2c(cc3c(=O)n(CCCC(=O)NCc4cccc(Cl)c4)ncn32)s1 | – | inactive: 13.6%
CC(=O)[C@H]1CC[C@H]2C3CC=C4C[C@@H](O)CC[C@]4(C)C3CC[C@]12C (some centres undefined) | inconclusive: 8.44 µM [inhibitor, partial curve, poor fit] | –
CCCCc1ccc(C2C3=C(CC(C)(C)CC3=O)NC3=C2C(=O)c2ccccc23)cc1 (centres undefined) | inconclusive: 89.1 µM [inhibitor, partial curve, poor fit] | –
Cc1nnnn1/C(=C\c1ccccc1)C(=O)OCC(=O)Nc1cccc(S(=O)(=O)N(C)C)c1 | inconclusive: 17.8 µM [inhibitor, full curve, poor fit] | –
COc1cccc(CNc2ccc3[nH]c(=O)[nH]c3c2)c1OCc1ccccc1 | inconclusive: 89.1 µM [inhibitor, partial curve, poor fit] | –
O=C(COC(=O)[C@H](Cc1ccccc1)NC(=O)c1cccs1)Nc1cc(F)ccc1F | inconclusive: 79.4 µM [inhibitor, single point] | –
Cc1nc(C/C(=N\Nc2ccccc2)c2ccc(O)cc2O)cs1 | inconclusive: 44.7 µM [inhibitor, partial curve, poor fit] | –
COc1cccc(C(=O)NCCCc2ccccc2)c1OC | inconclusive: 89.1 µM [inhibitor, single point] | –
CCNC(=S)NNC(=O)c1cccn(Cc2ccc(Cl)cc2)c1=O | inconclusive: 70.8 µM [inhibitor, partial curve, poor fit] | –
COc1ccccc1/C=C/C=N/NC(=O)c1cc(-c2ccco2)[nH]n1 | inconclusive: 50.1 µM [inhibitor, partial curve, poor fit] | –
Cc1ccc(S(=O)(=O)N(C)CC(=O)OCC(=O)NC(=O)Nc2ccc3c(c2)OCCO3)cc1 | inconclusive: 28.2 µM [inhibitor, full curve, poor fit] | –
CCC(CC)C1C(C#N)=C(N)SC(N)=C1C#N | inconclusive: 70.8 µM [inhibitor, partial curve, poor fit] | –
COc1ccc(-c2sc(Nc3ccc(F)c(F)c3F)nc2CCC(=O)NN)cc1 | – | inactive: 3.72%
CCN=c1scc(-c2ccco2)n1/N=C/c1ccc(OC)c(O)c1 | inconclusive: 89.1 µM [inhibitor, single point] | –
Cc1cccc2c1-c1sc(C(=O)N(C)c3cccc(Cl)c3)cc1CO2 | inconclusive: 79.4 µM [inhibitor, partial curve, poor fit] | –
CC(=O)NC1=NN(C(C)=O)C2(S1)C(=O)N(C(C)=O)c1ccc(C)cc12 (centres undefined) | inconclusive: 89.1 µM [inhibitor, single point] | –
O=C(CN1CCN(S(=O)(=O)N2CCCCCC2)CC1)Nc1ccc(Br)cc1 | – | inactive: -19.9%
Cc1ccc(Cl)cc1Nc1nn2c(=O)c3ccc(C(=O)NCc4ccc(F)cc4)cc3nc2s1 | – | inactive: -8.28%
CCCOc1ccc(-c2nc(SCC(=O)c3ccc(Cl)cc3)n[nH]2)cc1 | – | inactive: -38.6%
Cc1cccc(CN(CC(=O)N/N=C/c2ccco2)S(=O)(=O)c2ccc(Cl)cc2)c1 | inconclusive: 89.1 µM [inhibitor, single point] | –

SMILES | Potency | activity change, negative = inhibition
O=C(O)Cn1c(O)c(C=Nc2ccccc2)sc1=S | inactive | –
CSc1ncccc1C(=O)OCC(=O)c1ccc(Br)s1 | inconclusive: 44.7 µM [inhibitor, partial curve, poor fit] | –
Cc1ccccc1NC(=O)Cn1c(=O)n(Cc2ccc3c(c2)OCO3)c(=O)c2ccccc21 | – | inactive: -6.57%
O=C(c1ccc(Cl)c(S(=O)(=O)NCc2ccco2)c1)N1CCN(c2ccccc2F)CC1 | inconclusive: 70.8 µM [inhibitor, partial curve, poor fit] | –
O=S(=O)(c1cccc(-c2csc(-c3ccccc3)n2)c1)N1CCOCC1 | inconclusive: 70.8 µM [inhibitor, partial curve, poor fit] | –
N#Cc1c(-c2ccc(F)cc2)cc(-c2cccs2)nc1SCC(=O)O | – | inactive: -49.7%
O=C1N(c2ccc(Cl)cc2)C(c2ccccc2)N2CCCN12 (centres undefined) | inconclusive: 79.4 µM [inhibitor, partial curve, poor fit] | –
CCN1CCN(c2ccc(S(=O)(=O)N3CCCCC3)cc2NC(=O)/C=C/c2ccc([N+](=O)[O-])cc2)CC1 | inconclusive: 70.8 µM [inhibitor, partial curve, poor fit] | –
COc1cccc(C(C)NC(=O)Cc2cccs2)c1 (centres undefined) | inconclusive: 50.1 µM [inhibitor, partial curve, poor fit] | –
Cc1csc(NC(=O)c2ccccc2O)n1 | – | inactive: 5.58%
COC(C(=O)Nc1c(F)cccc1F)c1ccccc1 (centres undefined) | inconclusive: 50.1 µM [inhibitor, partial curve, poor fit] | –
COc1ccc(C)cc1Nc1cc(C)nc(C)n1 | – | inactive: 2.37%
N=c1n(CCN2CCCCC2)c2ccccc2n1CC(=O)c1cccs1 | – | inactive: 2.08%
O=C(CCCN1C(=O)/C(=C/c2cccs2)SC1=S)Nc1ccccn1 | inconclusive: 31.6 µM [inhibitor, full curve, poor fit] | –
CCOc1ccc(/C=C/C2=Cc3c(sc(NC(=O)CSc4n[nH]c(N)n4)c3C#N)C(C)(C)C2)cc1 | inconclusive: 100 µM [inhibitor, single point] | –
COc1ccc(CNc2nc(Cl)nc3nc[nH]c23)cc1 | inactive | –
Cc1csc(SCC(=O)Nc2cc([N+](=O)[O-])ccc2F)n1 | – | inactive: 1.87%
Cc1cc(Nc2cccc(C(F)(F)F)c2)nc2ccc(NC(=O)c3cccc(Cl)c3)cc12 | – | inactive: 16.3%
O=S(=O)(c1cccc2ccccc12)N1CCN(c2ccc(Cl)c(Cl)c2)CC1 | – | inactive: -4.29%
COc1ccc(Cl)cc1C(=O)NNC(=O)C1COc2ccccc2O1 (centres undefined) | inconclusive: 50.1 µM [inhibitor, partial curve, poor fit] | –
